Results: PMC4336329 (PLoS ONE, 2015)
In all, about 310,000 compounds went through this assay and about 14,000 (4.5%) showed an effect of 50% or more. Effects have a minus sign here. The list shows a part of the results.

molecular target: human ether-à-go-go-related gene (hERG) potassium channel (human, UniProt Q12809); test: primary screen, population patch clamp on CHO cells stably expressing hERG
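Note: peak tail current of the secondary pulse compared with the same well before compound.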

Chain of human ether-à-go-go-related gene (hERG) potassium channel (Q12809 whole entry, looked up): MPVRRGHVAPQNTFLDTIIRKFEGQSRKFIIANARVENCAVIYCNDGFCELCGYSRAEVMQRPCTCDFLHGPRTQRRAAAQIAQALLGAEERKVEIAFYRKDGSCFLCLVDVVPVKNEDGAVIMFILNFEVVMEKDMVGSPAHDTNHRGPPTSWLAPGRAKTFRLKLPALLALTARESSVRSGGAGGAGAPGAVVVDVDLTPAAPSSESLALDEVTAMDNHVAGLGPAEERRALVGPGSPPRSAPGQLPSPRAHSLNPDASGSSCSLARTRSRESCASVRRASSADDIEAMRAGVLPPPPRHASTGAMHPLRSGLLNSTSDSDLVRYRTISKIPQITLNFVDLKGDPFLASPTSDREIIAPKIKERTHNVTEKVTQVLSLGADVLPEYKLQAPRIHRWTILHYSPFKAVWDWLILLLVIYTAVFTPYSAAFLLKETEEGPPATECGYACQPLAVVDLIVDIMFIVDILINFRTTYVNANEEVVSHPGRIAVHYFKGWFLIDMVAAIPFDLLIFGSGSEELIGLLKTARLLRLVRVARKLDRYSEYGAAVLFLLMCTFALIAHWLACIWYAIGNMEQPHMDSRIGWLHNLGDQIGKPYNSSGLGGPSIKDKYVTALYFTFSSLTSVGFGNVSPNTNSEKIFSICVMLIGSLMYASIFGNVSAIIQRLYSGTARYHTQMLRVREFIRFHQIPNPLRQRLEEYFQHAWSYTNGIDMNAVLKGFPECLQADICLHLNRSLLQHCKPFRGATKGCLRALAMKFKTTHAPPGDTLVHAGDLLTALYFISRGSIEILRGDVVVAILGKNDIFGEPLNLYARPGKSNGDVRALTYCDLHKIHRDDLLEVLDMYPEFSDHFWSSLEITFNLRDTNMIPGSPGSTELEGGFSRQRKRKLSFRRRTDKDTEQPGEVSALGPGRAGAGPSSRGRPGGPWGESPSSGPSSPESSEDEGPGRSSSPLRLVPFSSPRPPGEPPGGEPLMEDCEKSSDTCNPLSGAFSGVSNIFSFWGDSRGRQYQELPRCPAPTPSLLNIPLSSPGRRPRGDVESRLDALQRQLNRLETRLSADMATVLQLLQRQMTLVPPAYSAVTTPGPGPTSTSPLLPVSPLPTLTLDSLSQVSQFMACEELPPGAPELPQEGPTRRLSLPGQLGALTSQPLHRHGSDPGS

| Structure (SMILES) | hERG current change (%, negative = inhibition) at 10uM |
| --- | --- |
| COc1ccc(-c2nc(N)nc(N)n2)c(O)c1 | 9.39% |
| COc1ccc(-c2cc(=NCC(=O)O)c3ccccc3o2)cc1.[O-][Cl+3]([O-])([O-])O | -31.5% |
| COCC1CCCCN1Cc1cn[nH]c1-c1ccc2cc(OC)ccc2c1 (centres unmarked) | -70.2% |
| O=C(Nc1ccc(F)cc1)c1cccc(N2C(=O)C3C4C=CC(C4)C3C2=O)c1 (centres unmarked) | -39.6% |
| CCCC1OC23CCCCC2C(C#N)(C#N)C1(C#N)C(=N)O3 (centres unmarked) | -6.73% |
| c1ccc(C(c2ccccc2)c2nc(-c3cccnc3)no2)cc1 | -0.438% |
| CC(Cc1ccccc1)C(=O)NCCO (centres unmarked) | 7.87% |
| Cn1c(=O)[nH]c(=O)c2c1nc(Br)n2CC(O)c1ccccc1 (centres unmarked) | 10.2% |
| Cc1ccccc1NC(=O)N1CCN(c2ncccn2)CC1 | 4.15% |
| O=C(Cn1cc(C(=O)COc2ccccc2)c2ccccc21)NCc1ccco1 | -0.105% |
| COc1ccc(Cc2nc3ccc(C(=O)NCCc4cccc(C)n4)cc3o2)cc1 | -0.594% |
| CCCCN=C(Nc1ccc(Cl)cc1)c1cccnc1 | -9.16% |
| O=C(O)CCn1cc(C=C2C(=O)NC(=S)NC2=O)c(-c2ccccc2)n1 | 19.2% |
| O=S(=O)(Nc1nnc(C(F)(F)F)s1)c1ccc(Cl)cc1 | 10.8% |
| CN1C(C(=O)NCc2ccc(OC(F)(F)F)cc2)CC2Cn3c(nc4ccccc43)C21 (centres unmarked) | -78.7% |
| CCCCC(=O)N(CCC)CCC | 15.1% |
| Cc1ccc(CCC(=O)Nc2ccc(C#N)cc2)o1 | -14.8% |
| CCCSc1nnc(CNC(=O)C23CC4CC(CC(C4)C2)C3)n1Cc1ccccc1 | -24.4% |
| CC1(C)OC(=O)C(=Cc2ccc(-c3ccc(Cl)c(C(=O)O)c3)o2)C(=O)O1 | 15.8% |
| O=S(=O)(/C=C/c1ccccc1)N1CCN(Cc2ccccc2)CC1 | -25.3% |
| COC(=O)c1ccccc1NC(=O)Oc1ccc(C(C)C)cc1 | 2.1% |
| O=C(O)CCCN1C(=O)C2C3c4ccccc4C(c4ccccc43)[C@@H]2C1=O (some centres unmarked) | 13% |

| Structure (SMILES) | hERG current change (%, negative = inhibition) at 10uM |
| --- | --- |
| COc1ccc(NC(=O)c2cc(S(=O)(=O)N3CCCC3)cn2C)cc1Cl | 1.28% |
| COc1ccc(Cc2nc3ccccc3n2CC(=O)N/N=C/c2ccccc2)cc1OC | 12.3% |
| COc1ccc(N2CC(NS(=O)(=O)c3cccnc3)CC2=O)cc1OC (centres unmarked) | 36.3% |
| Cc1cc(C)c(C)c(S(=O)(=O)NCC(=O)N2CCCC2)c1C | 7.49% |
| O=C1/C(=C\c2cccs2)Sc2ccc3ccccc3c21 | 9.58% |
| O=C(C1CC(=O)N(c2ccccc2)C1)N1CCN(c2ccccc2F)CC1 (centres unmarked) | -13.4% |
| COc1ccccc1C(c1nnnn1Cc1ccccc1)N1CCN(c2nc3ccccc3s2)CC1.Cl (centres unmarked) | 23.1% |
| COc1ccc(/C=C2\SC(=S)N(CCCC(=O)N3CCOCC3)C2=O)cc1 | -21.5% |
| CSCCC(NC(=O)c1ccccc1)C(=O)NCCc1ccc2c(c1)OCCO2 (centres unmarked) | -8.03% |
| Cn1c(SCC(=O)NNC(=O)Nc2ccccc2)nnc1-c1ccccc1 | 8.73% |
| O=C(Nc1ccccc1C(=O)Nc1ccc2c(c1)OCO2)c1ccco1 | 2.46% |
| COc1ccc(S(=O)(=O)N2CCC(C(=O)N[C@@H](C)C(=O)NCc3cccc(OC)c3)CC2)cc1 | 15.3% |
| Nc1ccccc1Nc1cc(-c2ccccc2)nn1-c1ccccc1 | -3.56% |
| Fc1ccccc1CSc1nnnn1-c1ccc2c(c1)OCO2 | -18.5% |
| NS(=O)(=O)c1ccc(NC(=O)COC(=O)CCNC(=O)NC23CC4CC(CC(C4)C2)C3)cc1 | 0.608% |
| Cc1coc2c1c(C)cc1oc(=O)c(CC(=O)N[C@@H](CC(C)C)C(=O)O)c(C)c12 | -16.2% |
| COc1ccc(OC)c(N2CC(O)(c3cccs3)[N+]3=C2SCCC3)c1.[Br-] (centres unmarked) | -50.5% |
| Cc1csc(NC(=O)C2COc3ccccc3O2)n1 (centres unmarked) | -18.9% |
| Cc1cccc(-n2c(N)cc(=O)[nH]c2=S)c1 | -1.56% |
| CSc1ccc(Cl)c(C(=O)NCCCn2ccnc2)c1 | -7.9% |
| O=C(NNC(=O)c1ccc(Cl)cc1Cl)c1csc(-c2cccnc2)n1 | -44.8% |
| Cc1cnc(C(=O)Nc2ccc(S(=O)(=O)N(C(C)C)C(C)C)cc2)cn1 | 2.87% |

| Structure (SMILES) | hERG current change (%, negative = inhibition) at 10uM |
| --- | --- |
| COc1ccc(C2=C3C(=O)OCC3Cc3ncn(Cc4ccccc4)c32)cc1 (centres unmarked) | 4.51% |
| O=C(c1nc2ccc(Cl)cn2c1CN1CCC(CO)CC1)N1CCc2ccccc2C1 | -16.4% |
| CC1CCN(S(=O)(=O)c2cc([N+](=O)[O-])ccc2Cl)CC1 | -24% |
| CC1(C2CC2)NC(=O)N(CC(=O)Nc2ccc(Cl)c([N+](=O)[O-])c2)C1=O (centres unmarked) | -1.15% |
| O=C(c1cc(COc2ccc(F)cc2Cl)on1)N(Cc1ccncc1)CC1CCCO1 (centres unmarked) | -60.7% |
| COc1ccccc1NC(=O)C(C)OC(=O)Cc1n[nH]c(=O)c2ccccc12 (centres unmarked) | 9.99% |
| COCCNC(=O)COC(=O)c1ccc(S(=O)(=O)N2CCOCC2)cc1 | 13.6% |
| CCCNC(=O)c1cc(-c2ccc(Br)cc2)on1 | 11.6% |
| Cc1ccc(CNC(=O)CCCc2nc3ccccc3s2)cc1 | -16.5% |
| COc1ccccc1NC(=O)c1nnn(CC(=O)Nc2cc(C)cc(C)c2)c1N | 17% |
| COC(=O)c1sc2nc[nH]c(=O)c2c1C | 14.5% |
| COc1ccc(OC)c(NS(=O)(=O)c2ccc3c(c2)C(C)(C)C(=O)N3C)c1 | -3.88% |
| Cc1cc(C(=O)N2CCN(c3ncccn3)CC2)c2cc(F)ccc2n1 | 3.88% |
| CCOC(=O)N1CCN(C(=O)COC(=O)CNC(=O)c2ccc(C)cc2)CC1 | -5.95% |
| Cc1ccccc1C(=O)Nc1ccccc1C(=O)NCc1ccccc1 | -26.9% |
| Fc1ccc(F)c(NC2=NCCCCC2)c1 | 13.8% |
| Cc1oc2cc3oc(=O)c4c(c3cc2c1C)CCC4 | -15.4% |
| C=CCNC(=O)COC(=O)c1cc(S(=O)(=O)N2CCOCC2)ccc1N1CCCCC1 | -22.6% |
| CC1CCCN(S(=O)(=O)c2ccc(NC(=O)CCN3C(=O)c4ccccc4C3=O)cc2)C1 (centres unmarked) | -6.72% |
| CCCCCC(O)(CCN1CCCCC1)c1ccc(OCC)cc1.Cl (centres unmarked) | -77.1% |
| CC(/C=C(\NC(=O)c1ccccc1)C(=O)N=Nc1c(O)[nH]c2ccc(C)cc12)=C\c1ccccc1 | 4.93% |
| Cc1cc(C)n2nc(C(=O)Nc3cccc(S(=O)(=O)N4CCCC4)c3)nc2n1 | -2.92% |

| Structure (SMILES) | hERG current change (%, negative = inhibition) at 10uM |
| --- | --- |
| O=C(Nc1ccccc1Cl)NC1(C(=O)N2CCC(O)CC2)CCCCC1 | 26.2% |
| CC(C)n1cc(CN2CCC(Oc3ccc(C(=O)N4CCCCC4)cc3)CC2)cn1 | -31.6% |
| Cc1ccc(Nc2nc(C(=O)N3CCC(C(=O)NCc4ccccc4)CC3)cs2)cc1 | -32.7% |
| Cc1ccc2occ(/C=N/NC(=O)c3ccccc3Br)c(=O)c2c1 | 10.3% |
| Cc1cccc2cc(/C=N/NC(=O)c3ccccc3O)c(Cl)nc12 | -2.17% |
| COc1ccc(C(=O)NNC(=O)C23CC4CC(CC(C4)C2)C3)c(OC)c1 | 11% |
| CSc1nc(=S)n(-c2ccc([N+](=O)[O-])cc2)c(C)c1C(C)=O | -68.3% |
| COc1ccc(C(=O)NCC(=O)OCCCOC(=O)CNC(=O)c2ccc(OC)c(OC)c2)cc1OC | 0.22% |
| O=C(Nc1ccc(-n2cnnn2)cc1)c1cccc(S(=O)(=O)N2CCCC2)c1 | -19.1% |
| CCC(=O)Nc1ccc(C(=O)CSc2nnc(-c3ccccc3F)n2C2CC2)cc1 | 18.7% |
| O=[N+]([O-])c1cc([N+](=O)[O-])c(Oc2ccc(Cl)c3cccnc23)cc1NN1CCCCC1 | 3.6% |
| Cc1ccc(S(=O)(=O)N2CCN(C(=O)C(C)Cn3nc(C)c(C)c3C)CC2)cc1C (centres unmarked) | -8.42% |
| COc1ccc(N2CCN(C(=S)NCc3ccccc3)CC2)cc1 | 15.3% |
| O=C(O)c1ccc(N/N=C/c2cn(Cc3ccccc3F)c3ccccc23)cc1 | -3.35% |
| NS(=O)(=O)c1ccc(CCNC(=O)COC(=O)c2nc(Cl)ccc2Cl)cc1 | 10.1% |
| CCN(CC)c1ccc(NC(=O)CC2Oc3ccccc3NC2=O)c(C)c1 (centres unmarked) | -12.9% |
| Cc1ccc(C)c(S(=O)(=O)N2CCN(C(=O)Cc3ccsc3)CC2)c1 | -33.1% |
| N#C/C(=C\c1cccc([N+](=O)[O-])c1)c1nnc2n1CCCCC2 | -20.7% |
| O=C(COC(=O)c1ccc(Cl)c(S(=O)(=O)N2CCCC2)c1)NC1CCCC1 | -21.6% |
| CC(=O)c1ccc(N2CCN(C(=O)CCCn3c(=O)[nH]c4ccsc4c3=O)CC2)cc1 | 13.9% |
